Data taken from the RNAGym collection of RNA variant scans (doi:10.7554/elife.90254).
Read counts are not given, so values of variants with three or more changes are uncertain.

B1: LINE1-mini (parent)
chain: GGCAGAGCUCAACACAGCGUGGCAAAGUGGCUGUGGCUAGACUGCC

Variants of: B1
Experiment: self-cleavage, relative activity (ratio to wild type); higher = more cleavage; in vitro, sequencing; the parent is a self-cleaving ribozyme

Row | Variant | self-cleavage
1 | C15U G21U A24G A39G | 0
2 | C15U C18U C23U C37A | 0.75
3 | C15U C37U G40A | 0.05
4 | C15G C18G U28G | 0.01
5 | C15G A16C C42A | 0.01
6 | C15U G19C G35A | 0.13
7 | C15A G33C C37G A39C | 0.03
8 | C15G G36U C42A | 0.02
9 | C15U C18A U34C | 0.13
10 | C15A G29U U34G G35U | 0.05
11 | C15U G19A G35U C42A | 0.1
12 | C15U G27U C45A | 0.24
13 | C15A G35U C37U A39C | 0.01
14 | C15U G21A C23G | 0.13
15 | C15A G29C C42A | 0.05
16 | C15G A26U G29U | 0.07
17 | C15U C31G C42A | 0
18 | C15U C18U A26U U32A G36A | 0.03
19 | C15U C23U G27A G33U U34C | 0.32
20 | C15U A16U C18G A26G | 0.01
21 | C15U A16U U32C U34C | 0.07

Row | Variant | self-cleavage
22 | C15U G17A A26C U28G G30U | 0.07
23 | C15G C18A G19C U20C C46G | 0.08
24 | C15A U34A C37U G40A | 0.02
25 | C15G C31U C42U | 0
26 | C15U C18U C42U | 0.02
27 | C15G G19U A39G | 0.01
28 | C15U G17U G40C | 0.22
29 | C15U G30A A41G | 0.11
30 | C15U G19U C31U U32G C37G C42G | 0.04
31 | C15A G29A A39U G44U | 0.05
32 | C15U C31U G33A G36A | 0.05
33 | C15U G27U G40A | 0.18
34 | C15U C37U A41C C45G | 0.02
35 | C15U G35U A39C | 0.09
36 | C15A G33U C46A | 0.25
37 | C15U G19U G40A G44U | 0
38 | C15G C23A A41G C45A | 0.03
39 | C15G G19C G29A C45G | 0.01
40 | C15G C37U G44U | 0.02
41 | C15U A39U A41C U43A | 0.02
42 | C15A G27U U28G A39G | 0.01

Row | Variant | self-cleavage
43 | C15G C18U G22U G35A A39U | 0.04
44 | C15U G19A U28C U34C U43G C45U | 0.01
45 | C15G G19C G21U | 0.03
46 | C15U A26G C31G G33C A41C | 0.02
47 | C15A U20A G29C | 0.42
48 | C15U G29C C37A | 0.11
49 | C15U C31U G40C G44C C46A | 0
50 | C15U C18G G30U | 0.08
51 | C15G G21C G27A C37A | 0.01
52 | C15U A26U A41U | 0.73
53 | C15G C23G A25C G33U | 0.04
54 | C15U G36U A39U | 0.05
55 | C15U G27C G33A C42G | 0.06
56 | C15U G30A C37U A41U | 0.02
57 | C15U G30U U32C C45U | 0.04
58 | C15G G19C G29C A39U G44A | 0.06
59 | C15G G40C A41U G44A | 0.01
60 | C15G A16U G30C | 0.1
61 | C15A U34C U38A | 0.05
62 | C15U G29A G40U | 0.01
63 | C15U A24C C31U | 0.05

Row | Variant | self-cleavage
64 | C15G G17U C23U G29A G36U | 0.07
65 | C15G G17U U43A G44A | 0.03
66 | C15A G35U C46A | 0.04
67 | C15U C23A G27A C31A U38G C42A U43C | 0.04
68 | C15U C31G C46U | 0.05
69 | C15G G21A C37A G40U | 0.04
70 | C15U G29C C42A G44U | 0.06
71 | C15U G30A C37U A39G | 0.01
72 | C15U C18G G29C G33U | 0.14
73 | C15U G21A A39U | 1.05
74 | C15U G19C A25U G44A | 0.09
75 | C15U C18U U32G C42A | 0.02
76 | C15A U32G U34A | 0.14
77 | C15U A24U G29U A41U C46A | 0.1
78 | C15G A16G G36U G40U | 0.04
79 | C15G A24C G40C | 0.02
80 | C15U C23A G30C | 0.07
81 | C15G G21U C23U A24G C45A | 0.01
82 | C15A U28C G40C | 0.15
83 | C15G A24C C37A | 0
